Laboratory results from article PMC6919601, “Identification of Plasmodium dipeptidyl aminopeptidase allosteric inhibitors by high throughput screening” (PLoS ONE, 2019).
Among all 110,000 compounds or so, about 230 (0.21%) showed an effect of 50% or more. Some of the results follow.

biological target: DPAP1 (Plasmodium falciparum, UniProt Q8IIJ9); assay: primary screen, percent inhibition; read by cleavage of a fluorogenic dipeptide substrate; higher = more effect of the substance; parameters: species or system P. falciparum D10 trophozoite lysates; single well
Sequence (Q8IIJ9 whole entry, looked up): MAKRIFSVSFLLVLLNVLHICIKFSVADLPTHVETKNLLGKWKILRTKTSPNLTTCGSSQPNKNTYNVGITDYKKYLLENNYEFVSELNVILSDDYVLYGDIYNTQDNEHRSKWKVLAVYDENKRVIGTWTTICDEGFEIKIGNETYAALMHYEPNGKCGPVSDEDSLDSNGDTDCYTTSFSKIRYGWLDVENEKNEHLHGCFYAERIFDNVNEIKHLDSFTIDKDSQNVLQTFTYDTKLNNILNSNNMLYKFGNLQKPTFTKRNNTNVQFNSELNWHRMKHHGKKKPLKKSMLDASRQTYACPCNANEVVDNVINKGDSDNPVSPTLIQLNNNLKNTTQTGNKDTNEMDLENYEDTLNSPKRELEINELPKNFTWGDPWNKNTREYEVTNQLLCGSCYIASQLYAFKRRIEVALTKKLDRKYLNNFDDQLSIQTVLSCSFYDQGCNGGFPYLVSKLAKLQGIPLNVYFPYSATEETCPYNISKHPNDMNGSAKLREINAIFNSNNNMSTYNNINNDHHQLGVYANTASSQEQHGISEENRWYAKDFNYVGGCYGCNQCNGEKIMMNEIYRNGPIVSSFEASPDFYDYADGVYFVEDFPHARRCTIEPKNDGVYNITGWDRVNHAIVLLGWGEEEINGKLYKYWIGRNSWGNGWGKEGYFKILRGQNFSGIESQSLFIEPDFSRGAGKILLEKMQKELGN
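Also: 30 min substrate incubation versus DMSO and 10 µM JCP410 controls.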

Compound	% Inhibition @ 10 uM
Oc1cccc(CN2CCN(c3cccc(C(F)(F)F)c3)CC2)c1	-6.47%
O=C1NC(=O)C2(COC3(CCCC3)OC2)S1	-5.68%
O=C(Nc1cnc2ccccc2c1)N1CCCCCC1	-3.33%
O=S(=O)(c1ccc(Cl)cc1)n1c(COc2ccc(Cl)cc2Cl)nc2ccccc21	-1.74%
O=C(CSc1nc2ccccc2[nH]1)c1cccc([N+](=O)[O-])c1	4.89%
Cc1ccc(OCC(=O)O/N=C(\N)Cc2cccs2)c(Br)c1	2.03%
COc1ccc(C(=O)Nc2ccccc2)cc1N	-0.771%
Cc1ccc2oc(-c3ccccc3)c/c(=N\CCN(C)C)c2c1	3.87%
COc1cc(S(=O)(=O)n2cnc3cc(C)c(C)cc32)ccc1Cl	3.15%
CC(=O)c1ccc(NC(=O)c2cccc(F)c2)cc1	-1.57%
O=C(O)c1cc(-c2ccc(Br)cc2)nc2ccccc12	-0.807%
CN1C(=O)CC(N2CCN(Cc3ccccc3)CC2)C1=O (centres unmarked)	2.38%
CC(CC(NC(=O)OCc1ccccc1)C(=O)NCC#N)CC(C)(C)C (centres unmarked)	-1.41%
CC(NC(=O)/C(=C\c1ccco1)NC(=O)c1ccc(C(C)(C)C)cc1)C(=O)O (centres unmarked)	-9.6%
C=CC[C@@]1(C)C(=O)CC[C@@]23COC[C@@H]2CCC[C@@H]31	-0.988%
Clc1ccc(-c2nn3c(-c4ccncc4)nnc3c3ccccc23)cc1	-1.35%
CN(CCc1ccccc1)Cc1c[nH]c2ccccc12	-2.34%
CCOc1ccc2nc(N3C(=O)c4cccc5cccc(c45)C3=O)sc2c1	5.55%
CCCn1c(=O)c2sccc2n2c(CCCC(=O)N3CCN(C(=O)c4ccco4)CC3)nnc12	-2.44%
CCOc1ccccc1C(=O)Nc1ccc(C)c(O)c1	0.632%
CC1CC(C)CN(S(=O)(=O)c2ccc(-n3cccn3)cc2)C1 (centres unmarked)	6.91%

Compound	% Inhibition @ 10 uM
O=C(CCn1nc(-c2ccc(Cl)cc2)ccc1=O)NCCN1CCOCC1	4.81%
Cc1ccc(S(=O)(=O)c2nc(-c3cccc(Cl)c3)oc2N2CCOCC2)cc1	1.57%
Cc1c(C)n(CC(O)CN2CCCCC2)c2ccccc12 (centres unmarked)	-5.06%
COc1ccc(OC)c(C2C=C(c3ccc(C(C)C)cc3)Nc3ncnn32)c1 (centres unmarked)	1.86%
CCOC(=O)N1CCC(N2CCN(c3ccc(Cl)cc3)CC2)CC1	-3.6%
Cc1ccc(S(=O)(=O)c2nnn3c2nc(NCc2ccccc2)c2ccccc23)cc1C	-5.07%
Cc1cccc(NC(=O)CCCN2C(=O)c3ccccc3C2=O)n1	-1.82%
O=C(Nc1ccccc1)C1C(=O)N(c2ccccc2)c2ccccc21 (centres unmarked)	-1.46%
CCn1cc(C2N3CC4(C(C)C)CN2CC(C(C)C)(C3)C4=O)c2ccccc21 (centres unmarked)	2.05%
COc1ccc(N(CC(=O)Nc2cc(Cl)ccc2C)S(C)(=O)=O)cc1OC	-1.04%
CCCN1CCC(NC2CCCCCC2)CC1	2.99%
C=CCn1c(N2CCOCC2)nc2ccccc21	-1.11%
CC(C)CC(NC(=O)OCc1ccccc1)C(=O)NC(CCc1ccccc1)C1OCCO1 (centres unmarked)	-3.97%
CC1CCN(C(=O)CSc2nc3ccccc3[nH]2)CC1	-4.77%
CC(C)Cn1c(CNC(=O)c2ccc(Cl)cc2)nc2ccccc21	-5.67%
COc1ccc(NC(=O)Cn2nc(C(F)(F)F)cc2C2CC2)cc1Cl	-1.88%
CCCN(CCC)S(=O)(=O)c1ccc(C(=O)Nc2sc3c(c2C(=O)OCC)CCCC3)cc1	-4.27%
C1CNC(NCC23CC4CC(CC(C4)C2)C3)=N1	-1.29%
CC(C)C1=NN2C(=N)/C(=C/c3ccc(Cl)cc3)C(=O)N=C2S1	0.685%
CC1CNC2=C(C(=O)Nc3ccccc3)C(=O)CC(c3ccccc3)N21 (centres unmarked)	3.05%
CCOc1ccccc1CNC(=O)c1nc(-c2cccc(F)c2)n2c1CCCCC2	-1.31%

Compound	% Inhibition @ 10 uM
COC(=O)c1c(C)sc(C(c2ccc(OC)cc2)c2sc(C)c(C(=O)OC)c2O)c1O	-1.24%
COc1cc2ccccc2cc1C(=O)Nc1ccc(NC(=O)c2cccs2)cc1	-11%
CCCSc1ncc(Cl)c(C(=O)NCCc2ccc(OC)c(OC)c2)n1	4.47%
Cc1ccc(S(=O)(=O)N(CC(=O)NC(C)(C)C)C2CCCCC2)cc1	0.924%
c1cncc(-c2noc(C34CC5CC(CC(C5)C3)C4)n2)c1	-6.7%
CCCOc1ccc(CN(C(=O)c2nc(SC)ncc2Cl)C2CCS(=O)(=O)C2)cc1 (centres unmarked)	-4.64%
Cc1ccc(S(=O)(=O)n2c(SCC(=O)NCc3ccccc3)nc3ccccc32)cc1	6.58%
COc1ccccc1CNC(=O)CN(C)S(=O)(=O)c1ccc2nc(C)sc2c1	-0.522%
COC(=O)c1cc2occc2n1Cc1nc(-c2ccc(OC)cc2)oc1C	-2.18%
COc1ccc(NC(=O)CN2C(=O)C3C4CCC(C4)C3C2=O)cc1 (centres unmarked)	4.84%
CCCOc1ccc(C2C(C(=O)OCC)=CN(Cc3ccc(F)cc3)C=C2C(=O)OCC)cc1	-3.23%
CC(C)CCNC(=O)c1ccc(CS(=O)(=O)Cc2ccc(Cl)cc2)o1	-4.97%
CC(C)C[C@H](NC(=O)c1ccc(-c2csc(N=C(N)N)n2)cc1)C(=O)N[C@@H](Cc1c[nH]c2ccccc12)C(=O)O	6.03%
O=C(Cn1c(-c2cccs2)cc2ccccc21)NCC1CCCO1 (centres unmarked)	-5.15%
CC(C)(CNC(=O)c1oc(=O)c2ccccc2c1-c1ccccc1)N1CCCCC1	2.34%
COC(=O)C1=CN(Cc2ccc(OC)cc2)C=C(C(=O)OC)C1c1ccc(O)cc1	-6.93%
CCOc1ccc2nc(N3CCCC(C(=O)NC(C)c4ccc5c(c4)OCCO5)C3)sc2c1 (centres unmarked)	4.95%
CCOC(=O)c1c(C)[nH]c(C)c1S(=O)(=O)N(C)CC(=O)Nc1nc2ccc(C)cc2s1	6.92%
O=C(O)CSc1nnc(-c2cccs2)n1-c1cccc(C(F)(F)F)c1	1.15%
COC(=O)c1c(NC(=O)c2ccccc2C)sc2c1CCC(C)C2 (centres unmarked)	7.63%
